Drawing on the supplement of paper PMC10369915, this text covers enrichment score for 19 molecules.

Some of the results follow. Cut-off read from the data, not from the text of the source: active = 3.2 or more and inactive = the rest. Only a few entries rise above the background.
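Note: displayed peptides selected on beads carrying the immobilized SH2 domain, with library peptides lacking any tyrosine serving as negative controls.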

The target of one test is SHP2 C-SH2 domain E139D. Nature of the test: enrichment score (SH2-bound / input frequency) (ratio); bacterial display of known human phosphotyrosine sites (pTyr-Var adds point mutants) read by sequencing; higher = stronger binding; tyrosines were phosphorylated by kinases first. The settings on record: peptide library: pTyr-Var.
Regarding GTSLIYWTLFT [G6PC3_Y214], the enrichment score was inactive: 0.923.
Regarding LSCLAYSGKDA [FXN_Y205_S202C], the enrichment score was inactive: 1.25.
As to EATKVYLDDPT [G6PD_Y322_G321V], the enrichment score was inactive: 0.664.
For GRSTYYWPSPR [GAGE12J_Y10_R13S], the enrichment score was inactive: 0.548.
Consider KAIDMYLMGCF [GABRB2_Y308], for which the enrichment score is inactive: 0.648.
Same read-out and setting: the figure for HVSISYDIPLT [GAB1_Y307_P311L] is inactive: 1.18; for KATKGYLDDPT [G6PD_Y322_E317K] it is inactive: 0.711; for YPIDHYLGKEM [G6PD_Y202_R198P] it is inactive: 1.14.
For WNDLDYVDSRR [GAA_Y407_M408V], the enrichment score is inactive: 0.892.
Take FARNSYVAGQF [G6PD_Y107_YF]: the enrichment score was inactive: 0.652.
Take KVIDMYLMGCF [GABRB2_Y308_A304V]: the enrichment score was inactive: 1.18.
As to RILDVYIFLGP [GAA_Y340_G335R], the enrichment score is inactive: 0.841.
Turning to HLPAGYIIPLQ [GAA_Y822_R819P], the enrichment score is inactive: 1.93.
In the case of GTSLIYWILFT [G6PC3_Y214_T216I], the enrichment score was inactive: 2.02.
Turning to WNDPDYMDSRR [GAA_Y407_L405P], the enrichment score was inactive: 0.824.
Still for that read-out and setting: the figure for PNKAVYTKMMT [G6PD_Y401_E398K] is inactive: 1.11; for KLPDAYEPLIL [G6PD_Y437_R439P] it is inactive: 0.849; for VNNLVYENING [FRS2_Y306_K303N] it is inactive: 2.24.
As to GGGGGYNCSSG [FUS_Y232_R234C], the enrichment score was inactive: 0.77.

The target of another test is SHP2 C-SH2 domain wild-type. The description is as above. The settings on record: peptide library: pTyr-Var.
Regarding GTSLIYWTLFT [G6PC3_Y214], the enrichment score is inactive: 1.05.
Same read-out and setting: the figure for LSCLAYSGKDA [FXN_Y205_S202C] is inactive: 1.65; for EATKVYLDDPT [G6PD_Y322_G321V] it is inactive: 0.724.
As for GRSTYYWPSPR [GAGE12J_Y10_R13S], the enrichment score was inactive: 0.532.
As to KAIDMYLMGCF [GABRB2_Y308], the enrichment score was inactive: 0.786.
In the case of HVSISYDIPLT [GAB1_Y307_P311L], the enrichment score is inactive: 1.27.
In the case of KATKGYLDDPT [G6PD_Y322_E317K], the enrichment score is inactive: 0.53.
Same read-out and setting: the figure for YPIDHYLGKEM [G6PD_Y202_R198P] is inactive: 0.919.
Consider WNDLDYVDSRR [GAA_Y407_M408V], for which the enrichment score was inactive: 0.79.
With FARNSYVAGQF [G6PD_Y107_YF], the enrichment score was inactive: 0.709.
The same measure, in the same setting: the figure for KVIDMYLMGCF [GABRB2_Y308_A304V] is inactive: 1.81; for RILDVYIFLGP [GAA_Y340_G335R] it is inactive: 1.18; for HLPAGYIIPLQ [GAA_Y822_R819P] it is active: 5.1.
On to GTSLIYWILFT [G6PC3_Y214_T216I], for which the enrichment score was inactive: 1.82.
As to WNDPDYMDSRR [GAA_Y407_L405P], the enrichment score was inactive: 1.05.
PNKAVYTKMMT [G6PD_Y401_E398K]: the enrichment score was inactive: 2.04.
With KLPDAYEPLIL [G6PD_Y437_R439P], the enrichment score is inactive: 0.821.
On the same count and under the same terms, in the case of VNNLVYENING [FRS2_Y306_K303N] it was inactive: 2.06; in that of GGGGGYNCSSG [FUS_Y232_R234C], inactive: 0.87.

The next test deals with SHP2 N-SH2 domain L43F. Described as above. To be noted: peptide library: pTyr-Var.
For the molecule GTSLIYWTLFT [G6PC3_Y214], the enrichment score is inactive: 0.929.
For the molecule LSCLAYSGKDA [FXN_Y205_S202C], the enrichment score is inactive: 1.34.
As for EATKVYLDDPT [G6PD_Y322_G321V], the enrichment score is inactive: 0.85.
On the same count and under the same terms, the figure for GRSTYYWPSPR [GAGE12J_Y10_R13S] is inactive: 0.526; for KAIDMYLMGCF [GABRB2_Y308] it is inactive: 0.801.
For the molecule HVSISYDIPLT [GAB1_Y307_P311L], the enrichment score is inactive: 1.31.
As to KATKGYLDDPT [G6PD_Y322_E317K], the enrichment score is inactive: 0.601.
Regarding YPIDHYLGKEM [G6PD_Y202_R198P], the enrichment score is inactive: 0.838.
Turning to WNDLDYVDSRR [GAA_Y407_M408V], the enrichment score was inactive: 0.761.
With FARNSYVAGQF [G6PD_Y107_YF], the enrichment score is inactive: 0.62.
With KVIDMYLMGCF [GABRB2_Y308_A304V], the enrichment score was inactive: 1.41.
On the same count and under the same terms, the figure for RILDVYIFLGP [GAA_Y340_G335R] is inactive: 0.825; for HLPAGYIIPLQ [GAA_Y822_R819P] it is active: 5.75; for GTSLIYWILFT [G6PC3_Y214_T216I] it is inactive: 1.88.
As for WNDPDYMDSRR [GAA_Y407_L405P], the enrichment score is inactive: 1.02.
Turning to PNKAVYTKMMT [G6PD_Y401_E398K], the enrichment score was inactive: 1.04.
The same measure, in the same setting: in the case of KLPDAYEPLIL [G6PD_Y437_R439P] it was inactive: 0.695; in that of VNNLVYENING [FRS2_Y306_K303N], inactive: 2.15; in that of GGGGGYNCSSG [FUS_Y232_R234C], inactive: 0.642.

Another test concerns the target SHP2 N-SH2 domain T42A. Described as above. To be noted: peptide library: pTyr-Var.
As for GTSLIYWTLFT [G6PC3_Y214], the enrichment score was inactive: 0.912.
As for LSCLAYSGKDA [FXN_Y205_S202C], the enrichment score is inactive: 1.06.
The same measure, in the same setting: the figure for EATKVYLDDPT [G6PD_Y322_G321V] is inactive: 0.652; for GRSTYYWPSPR [GAGE12J_Y10_R13S] it is inactive: 0.488; for KAIDMYLMGCF [GABRB2_Y308] it is inactive: 0.602.
Still for that read-out and setting: in the case of HVSISYDIPLT [GAB1_Y307_P311L] it was inactive: 2.06; in that of KATKGYLDDPT [G6PD_Y322_E317K], inactive: 0.618.
In the case of YPIDHYLGKEM [G6PD_Y202_R198P], the enrichment score was inactive: 0.946.
Consider WNDLDYVDSRR [GAA_Y407_M408V], for which the enrichment score is inactive: 0.837.
On to FARNSYVAGQF [G6PD_Y107_YF], for which the enrichment score was inactive: 0.595.
KVIDMYLMGCF [GABRB2_Y308_A304V]: the enrichment score was inactive: 1.11.
For the molecule RILDVYIFLGP [GAA_Y340_G335R], the enrichment score was inactive: 0.921.
As for HLPAGYIIPLQ [GAA_Y822_R819P], the enrichment score is active: 3.4.
Turning to GTSLIYWILFT [G6PC3_Y214_T216I], the enrichment score is inactive: 2.4.
Turning to WNDPDYMDSRR [GAA_Y407_L405P], the enrichment score is inactive: 0.832.
Turning to PNKAVYTKMMT [G6PD_Y401_E398K], the enrichment score was inactive: 2.29.
As for KLPDAYEPLIL [G6PD_Y437_R439P], the enrichment score is inactive: 0.666.
With VNNLVYENING [FRS2_Y306_K303N], the enrichment score is inactive: 2.54.
The same measure, in the same setting: the figure for GGGGGYNCSSG [FUS_Y232_R234C] is inactive: 0.635.

For another test, the target named is SHP2 N-SH2 domain T52S. The description is as above. The settings on record: peptide library: pTyr-Var.
Regarding GTSLIYWTLFT [G6PC3_Y214], the enrichment score is inactive: 1.22.
Take LSCLAYSGKDA [FXN_Y205_S202C]: the enrichment score is inactive: 1.1.
On the same count and under the same terms, in the case of EATKVYLDDPT [G6PD_Y322_G321V] it was inactive: 0.695; in that of GRSTYYWPSPR [GAGE12J_Y10_R13S], inactive: 0.587; in that of KAIDMYLMGCF [GABRB2_Y308], inactive: 0.676.
HVSISYDIPLT [GAB1_Y307_P311L]: the enrichment score is inactive: 1.1.
For the molecule KATKGYLDDPT [G6PD_Y322_E317K], the enrichment score is inactive: 0.727.
On the same count and under the same terms, the figure for YPIDHYLGKEM [G6PD_Y202_R198P] is inactive: 0.998; for WNDLDYVDSRR [GAA_Y407_M408V] it is inactive: 0.718; for FARNSYVAGQF [G6PD_Y107_YF] it is inactive: 0.529.
Take KVIDMYLMGCF [GABRB2_Y308_A304V]: the enrichment score is inactive: 1.33.
The same measure, in the same setting: the figure for RILDVYIFLGP [GAA_Y340_G335R] is inactive: 0.879; for HLPAGYIIPLQ [GAA_Y822_R819P] it is active: 6.78; for GTSLIYWILFT [G6PC3_Y214_T216I] it is inactive: 2.03.
For the molecule WNDPDYMDSRR [GAA_Y407_L405P], the enrichment score is inactive: 1.
Consider PNKAVYTKMMT [G6PD_Y401_E398K], for which the enrichment score is inactive: 0.737.
The same measure, in the same setting: in the case of KLPDAYEPLIL [G6PD_Y437_R439P] it was inactive: 0.706.
For VNNLVYENING [FRS2_Y306_K303N], the enrichment score is inactive: 2.21.
Turning to GGGGGYNCSSG [FUS_Y232_R234C], the enrichment score is inactive: 0.6.

A further test addresses SHP2 N-SH2 domain wild-type. The description is as above. To be noted: peptide library: pTyr-Var.
As to GTSLIYWTLFT [G6PC3_Y214], the enrichment score is inactive: 1.13.
For the molecule LSCLAYSGKDA [FXN_Y205_S202C], the enrichment score was inactive: 1.7.
On the same count and under the same terms, the figure for EATKVYLDDPT [G6PD_Y322_G321V] is inactive: 0.876; for GRSTYYWPSPR [GAGE12J_Y10_R13S] it is inactive: 0.622.
As for KAIDMYLMGCF [GABRB2_Y308], the enrichment score was inactive: 0.827.
HVSISYDIPLT [GAB1_Y307_P311L]: the enrichment score was inactive: 1.23.
Same read-out and setting: in the case of KATKGYLDDPT [G6PD_Y322_E317K] it was inactive: 0.721; in that of YPIDHYLGKEM [G6PD_Y202_R198P], inactive: 0.751; in that of WNDLDYVDSRR [GAA_Y407_M408V], inactive: 0.702.
In the case of FARNSYVAGQF [G6PD_Y107_YF], the enrichment score was inactive: 0.665.
Same read-out and setting: in the case of KVIDMYLMGCF [GABRB2_Y308_A304V] it was inactive: 1.78; in that of RILDVYIFLGP [GAA_Y340_G335R], inactive: 0.82.
On the same count and under the same terms, in the case of HLPAGYIIPLQ [GAA_Y822_R819P] it was inactive: 1.9.
Still for that read-out and setting: the figure for GTSLIYWILFT [G6PC3_Y214_T216I] is inactive: 2.02; for WNDPDYMDSRR [GAA_Y407_L405P] it is inactive: 1.1; for PNKAVYTKMMT [G6PD_Y401_E398K] it is inactive: 0.828.
For the molecule KLPDAYEPLIL [G6PD_Y437_R439P], the enrichment score was inactive: 0.987.
Still for that read-out and setting: in the case of VNNLVYENING [FRS2_Y306_K303N] it was inactive: 1.57; in that of GGGGGYNCSSG [FUS_Y232_R234C], inactive: 1.02.
